Out of some 390,000 compounds screened, about 55 (0.01%) were called active. The shares of active, inactive and inconclusive entries below differ from those in the screen. Calls follow the shape of the dose curve; as a rule, active = well fitted inhibition curve with a large enough effect; inconclusive = small, poorly fitted or top-dose-only effect; inactive = no such curve, though single readings can be large or run the other way. Potencies of inconclusive entries are doubtful fits and often do not repeat.
Each compound was assayed against Thioredoxin reductase 1, cytoplasmic (Rattus norvegicus) (UniProt O89049) (assay: qHTS Assay for Substrates of Mammalian Selenoprotein Thioredoxin Reductase 1 (TrxR1): qHTS). Conditions: purified TrxR1 substrate turnover, NADPH consumption readout; series mostly up to 114 µM.
UniProt O89049, sequence (O89049 whole entry, looked up): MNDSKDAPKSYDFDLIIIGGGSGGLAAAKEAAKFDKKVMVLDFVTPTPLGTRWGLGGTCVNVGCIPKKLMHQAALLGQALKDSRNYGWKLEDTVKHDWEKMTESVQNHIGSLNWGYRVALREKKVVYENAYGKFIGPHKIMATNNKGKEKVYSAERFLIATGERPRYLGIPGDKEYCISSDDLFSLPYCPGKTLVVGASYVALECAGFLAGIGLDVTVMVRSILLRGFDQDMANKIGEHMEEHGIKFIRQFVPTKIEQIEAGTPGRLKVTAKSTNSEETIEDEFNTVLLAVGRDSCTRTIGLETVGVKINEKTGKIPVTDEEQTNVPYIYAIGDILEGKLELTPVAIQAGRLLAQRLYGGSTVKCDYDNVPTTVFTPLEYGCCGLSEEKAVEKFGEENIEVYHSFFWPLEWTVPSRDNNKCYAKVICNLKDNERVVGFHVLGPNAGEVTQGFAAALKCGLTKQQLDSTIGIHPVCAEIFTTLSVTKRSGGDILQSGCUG
Outline: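 Rat TrxR1, dispensed at 90 nM, was prereduced with 400 uM NADPH (final) for 5 min at ~22 deg C, then incubated with compound 15 min before 400 uM selenite. A first-read NADPH fluorescence drop versus no-compound background flagged substrates.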
For `Cc1[nH][nH]c(=O)c1C(c1c(C)[nH][nH]c1=O)c1cn(Cc2ccccc2Cl)c2ccccc12`, the Potency was inconclusive: 39.8 µM [inhibitor, partial curve]. In the case of `CN1/C(=C/C=C(/C#N)C(N)=O)C(C)(C)c2ccccc21`, the Potency is reported as inconclusive: 31.6 µM [inhibitor, partial curve, poor fit]. With `Cc1ccc2c(c1)CCCN2C(=O)c1cnn2c1NC(=C1CC1)C=C2C(F)F` the Potency was “inactive”. `COc1ccc(NC(=O)c2cc(S(=O)(=O)N3CCCC3)c[nH]2)cc1` was tested, and the Potency was inconclusive: 89.1 µM [inhibitor, single point]. `Cc1cccc(C(=O)Nc2ccc(OCc3cc(=O)n4ccsc4n3)cc2)c1` was tested, and the Potency was inconclusive: 100 µM [inhibitor, single point]. In the case of `O=C(Cn1ccc2cc(S(=O)(=O)N3CCCCCC3)ccc21)NCCc1ccc(Cl)cc1`, the Potency is reported as “inactive”. In the case of `CCOc1ccc(C(=O)N2CCCC(c3nc(-c4ccc(C)o4)no3)C2)cc1` (configuration not stated), the Potency is reported as “inactive”. `COc1cc(/C=C(/C#N)c2nc3ccccc3[nH]2)ccc1OCc1ccc(C(=O)O)o1` was tested, and the Potency was inconclusive: 89.1 µM [inhibitor, partial curve, poor fit]. In the case of `CN1c2ccccc2C(O)=C(C(=S)Nc2ccc(Cl)cc2)S1(=O)=O`, the Potency is reported as inconclusive: 39.8 µM [inhibitor, partial curve, poor fit]. `Cc1ccc(S(=O)(=O)CCC(=O)Nc2ccc(Br)cc2C)cc1` was tested, and the Potency was “inactive”. `CCCCC(=O)NC(c1cccc([N+](=O)[O-])c1)c1ccc2cccnc2c1O` (configuration not stated) was tested, and the Potency was “inactive”. In the case of `Cc1cccc(-n2c(=O)c3c(c4cc(C)ccc4n3C)n(CC(=O)Nc3ccc(C)cc3C)c2=O)c1`, the Potency is reported as inconclusive: 28.2 µM [inhibitor, single point]. `Cc1ccc2c(c1)C(=O)C(=O)N2Cc1ccc(C(F)(F)F)cc1` was tested, and the Potency was inconclusive: 0.708 µM [inhibitor, partial curve, poor fit]. For `O=S(=O)(Nc1ccccc1)c1ccc(-c2csnn2)cc1`, the Potency was “inactive”. `COC(=O)C1=CO[C@@H](O)[C@@H]2C(CO)=CC[C@H]12` was tested, and the Potency was inconclusive: 29.9 µM [inhibitor, partial curve, poor fit]. With `CC(C)C(C(=O)O)N1C(=O)/C(=C/C=C/c2ccco2)SC1=S` (configuration not stated) the Potency was inconclusive: 89.1 µM [inhibitor, partial curve, poor fit]. `CC#C[C@]1(O)CC[C@H]2[C@@H]3CCC4=CC(=O)CCC4=C3[C@@H](c3ccc(N(C)C)cc3)C[C@@]21C` was tested, and the Potency was inconclusive: 15.8 µM [inhibitor, partial curve, poor fit]. In the case of `COc1ccc(C2CC(=O)N(CC(=O)Nc3ccc(C(C)=O)cc3)c3ccccc3S2)cc1OC` (configuration not stated), the Potency is reported as “inactive”. With `O=C1NN(c2cccc(Br)c2)C(=O)/C1=C\c1ccccc1` the Potency was inconclusive: 79.4 µM [inhibitor, partial curve, poor fit]. For `COc1ccc(NS(=O)(=O)c2cccc(C(=O)NCC(c3ccc(OC)cc3)N3CCCC3)c2)cc1` (configuration not stated), the Potency was “inactive”. In the case of `Cc1cccc(CN2C3=NCCCN3c3ccccc32)c1`, the Potency is reported as “inactive”. For `CCN(CC)c1ccc(/C=C2\C(=N)N3N=C(CC(=O)N4CCOCC4)SC3=NC2=O)cc1`, the Potency was inconclusive: 50.1 µM [inhibitor, partial curve, poor fit]. For `COc1ccc(Br)cc1CN(C)C(=O)c1ccccc1SCC(=O)N1CCCC1`, the Potency was “inactive”. `O=C(CSc1nc2ncc(Br)cc2[nH]1)c1ccc([N+](=O)[O-])cc1` was tested, and the Potency was inconclusive: 89.1 µM [inhibitor, partial curve, poor fit]. With `O=C(c1cc(O)c(O)c([N+](=O)[O-])c1)c1ccccc1F` the Potency was inconclusive: 89.1 µM [inhibitor, partial curve, poor fit]. In the case of `CC12CN3CC(C)(CN(C1)C3c1ccc3c(c1)OCO3)C2` (configuration not stated), the Potency is reported as inconclusive: 39.8 µM [inhibitor, single point]. `C#CCOc1ccc(/C=C2/C(=O)ON=C2C)cc1Cl` was tested, and the Potency was “inactive”. With `CC(C)C(=O)c1c(C(C)C)nn2ccccc12` the Potency was inconclusive: 37.7 µM [inhibitor, partial curve, poor fit]. With `O=C(CCCCCN1C(=O)c2ccccc2C1=O)Nc1ccccc1F` the Potency was inconclusive: 25.1 µM [inhibitor, single point]. With `Cc1ccc(S(=O)(=O)NC(C)c2ccccc2)cc1[N+](=O)[O-]` (configuration not stated) the Potency was inconclusive: 89.1 µM [inhibitor, single point]. For `CC1S/C(=N/N=C/c2cccs2)NC1=O` (configuration not stated), the Potency was inconclusive: 79.4 µM [inhibitor, partial curve, poor fit]. In the case of `CCn1nc(-c2ccccc2C)nc2c(=O)n(C)c(=O)nc1-2`, the Potency is reported as active: 14.1 µM. With `COc1ccc(/C=C2\Oc3cc(OCC(=O)N4CC(O)C[C@H]4C(=O)O)ccc3C2=O)cc1OC` (some centres not stated) the Potency was inconclusive: 79.4 µM [inhibitor, partial curve, poor fit]. `COCCCNC(=O)Nc1cc(C(=O)NCc2ccc(OC)cc2)ccc1N1CCCC1` was tested, and the Potency was “inactive”. With `COc1ccccc1N1CCN(C(CNS(=O)(=O)c2ccccc2)c2ccccc2)CC1` (configuration not stated) the Potency was inconclusive: 89.1 µM [inhibitor, single point]. For `Cc1cc(C)nc(NS(=O)(=O)c2ccc(NC(=O)C3COc4ccccc4O3)cc2)n1` (configuration not stated), the Potency was inconclusive: 100 µM [inhibitor, partial curve, poor fit]. `O=C(NC1CC2CCC(C1)N2C(=O)NCc1ccccc1)C1CC1` (configuration not stated) was tested, and the Potency was “inactive”. With `CCN(CC)c1ccc2c(C)c(Cl)c(=O)oc2c1` the Potency was “inactive”. `COc1cccc(/C=C/C(=O)OCC(=O)NC(=O)NC2CCCC2)c1` was tested, and the Potency was inconclusive: 25.1 µM [inhibitor, single point]. `Cc1cc(-c2ccc(Cl)cc2)oc(=O)c1NC(=O)c1ccccc1` was tested, and the Potency was “inactive”. With `O=C(N/C=N/O)C(c1ccccc1)c1ncc(C(F)(F)F)cc1Cl` (configuration not stated) the Potency was inconclusive: 28.2 µM [inhibitor, single point]. `CCOC1=C/C(=C/c2c(N)n3nc(CC(=O)N4CCCCC4)sc3nc2=O)C=CC1=O` was tested, and the Potency was inconclusive: 89.1 µM [inhibitor, partial curve, poor fit].
Also: nearly all actives have a fitted effect of over 50% in size.
Potency is read from the fitted curve at half-maximal effect; tags tell the direction and shape of the fitted curve.
